# From the supplement of paper PMC11417369
# The list shows a part of the results.
# Tested on: PfAP2-HC AP2 domain (GST-tagged)
# Assay: gcPBM binding intensity (ln(normalized median fluorescence intensity)); higher = stronger DNA binding
# Summary of the method: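 Using an Agilent 4 × 180k array, primer-extended double-stranded 36-bp intergenic genomic probes and negative controls were exposed for 1 h to GST-fused P. falciparum DNA-binding domains expressed in E. coli. Binding was carried out in 1× PBS with 1% milk, 0.2 mg/ml BSA, 0.5% salmon testes DNA and 0.03% Triton X-100, and protein was detected with Alexa488 anti-GST antibody and a 488 nm scan. Binding intensity is the highest Masliner-normalised natural-log median intensity across replicate spots of either probe orientation.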
row,Sequence,gcPBM binding intensity (ln)
1,TAAGTATACACATACACACACACACTAATAAAAAAA [CACACA_site8035],10.5
2,TATACACCCGGACACACACACATATATATATATATA [CACACA_site5030],10.3
3,ACATATTATATAACTCGTACTCGTAAAATATGTTGT [XGTACX_site2240],9.64
4,TTCTTCTGTTTTATTACACACCATTTTGCGTATACA [CACACA_site2070],9.98
5,GTCATAAATGTACGCACACATACATAAACATATACA [CACACA_site650],9.94
6,GTTCTTTTATATATTTGTACATATTTATATATATTG [XGTACX_site4078],9.94
7,CATTCTTGTTTAAAAAGTACATAAACATATATATAT [XGTACX_site1751],9.54
8,AAAAAAAATAAAGAGAAAAAAAAAAGAAAATTATAT [GTGCAC_negctrl_site550],9.54
9,TAAATTAATATGTATCGTACAATATATAAAACGATG [XGTACX_site2818],9.63
10,AATTTTATACGATAAACATGCAAATAAATAAATAAA [TGCATGCA_site227],9.67
11,AAAGAAAAAAAAAACACACACACACCCATTCAATAT [CACACA_site38],11.4
12,ACAGCCAATACGGAAACACACAAGTTATTTTATCAT [CACACA_site5507],9.8
13,TATAATAATATTTATTGTACAATTAGTTTAATTCAT [XGTACX_site272],9.35
14,TTTATTATATAAACATGTACACAATTTGGTATATTC [XGTACX_site3112],9.66
15,TATATGCCTATAAGAAGTACTGTGTAATGTAATATA [XGTACX_site8089],9.71
16,TAAACATAAATATGCACACATATACATATATTCATA [CACACA_site2667],9.83
17,AAGAAAAATATATTTATATATATATATATTAAATAT [TGCATGCA_negctrl_site500],9.48
18,CTACATAATAAAAAAAGTACATTCTAATAAATTGAC [XGTACX_site4504],9.68
19,ACTAATAATTTGTCGGTGCATAAAATTATTTTTATT [GTGCAC_site9840],9.74
20,AAATTATGCATCGAGGTGCGTCTTAAAATATAGTGG,9.65
21,ATATAAATTCAAATTACACACATTTATTTTTTTTAC [CACACA_site53],9.82
22,ATGATAAAATTATGTAGTACATATTTGAATGTAAAT [XGTACX_site688],9.85

row,Sequence,gcPBM binding intensity (ln)
1,ATATATGTAACATATTGTACATATATGTATGTATGT [XGTACX_site3281],9.96
2,ATTCATAAAAGTTGTACATGCAATTTTTTTTTTTTT [TGCATGCA_site270],9.48
3,ATTTTGTTATGAAACACACACATATATATATATATA [CACACA_site3650],10
4,TAATTTCTTATGTAGTGTACAAATAATATATGATAT [XGTACX_site597],9.43
5,AATATCTGTATATCCACACACATATATATATATATA [CACACA_site4987],10.1
6,TAATCGGTAATATTAACACACACATTTATATATATT [CACACA_site8274],10.4
7,GTATTAATAAAAATACGTACTTATTATTTATAATAA [XGTACX_site7672],9.54
8,ATTATTCATATAACACGTACAAAACGAAAAACAAAT [XGTACX_site3873],9.78
9,AAAAGGAGAAATATTGCACACGTGCAAAATGGTATG [CACACA_site4300],9.98
10,AATATCACCACATTGTTACTATAATATATAAAAAAG [XGTACX_negctrl_site384],9.64
11,TTCTGTGTCTAAAAATGTACGGGAATATATAAAAGT [XGTACX_site2090],9.56
12,TGACTTTGTTGAATTTGTCCTCTTAACTCATAATAT [GTGCAC_negctrl_site217],9.55
13,ACATAATATATATATTAACACACATCCTTTTATGTA [CACACA_site8317],9.86
14,TTTTTTTTTTTTAAATGTACTTATCAACTTTTATAT [XGTACX_site4641],9.48
15,ACTTATATTATAAATTGTACAAATATTATATTTGGT [XGTACX_site1424],9.7
16,TTATTTTGTTTATTATGTACACAAAGACATAATAAT [XGTACX_site5648],9.53
17,CACTTACATAATTATTGTACAGATATTATCAAATAA [XGTACX_site567],9.52
18,AATAAAATAATCCAAGTGCATATGTAAAAATACATT [GTGCAC_site9576],9.81
19,AATATATGTAAATGGACACACACATATATATATATA [CACACA_site9220],9.95
20,AAAAAAAAAAGACACACACACACACGCATATACATA [CACACA_site7289],10.7
21,ACGGACAATACGGAAACACACAAGTTATTTTATCAT [CACACA_site7310],9.94
22,TACGTAAAAATAATACGTACATATATTTATAGAAAA [XGTACX_site4959],9.71
